# PubChem BioAssay AID743262 (National Center for Advancing Translational Sciences (NCATS), 2014)
# Screen size: about 1,300 compounds; about 25 (2%) were called active. Not shown: some 9% with an inconclusive outcome. The call rests on the fitted dose curve; in most records, active means well fitted activation curve with a large enough effect; inconclusive means small, poorly fitted or top-dose-only effect; inactive means flat fitted curve, though single readings scatter. This is one part of the list.
# Target: Glucagon-like peptide 1 receptor (Homo sapiens) (UniProt P43220)
# UniProt P43220, sequence (P43220 whole entry, looked up): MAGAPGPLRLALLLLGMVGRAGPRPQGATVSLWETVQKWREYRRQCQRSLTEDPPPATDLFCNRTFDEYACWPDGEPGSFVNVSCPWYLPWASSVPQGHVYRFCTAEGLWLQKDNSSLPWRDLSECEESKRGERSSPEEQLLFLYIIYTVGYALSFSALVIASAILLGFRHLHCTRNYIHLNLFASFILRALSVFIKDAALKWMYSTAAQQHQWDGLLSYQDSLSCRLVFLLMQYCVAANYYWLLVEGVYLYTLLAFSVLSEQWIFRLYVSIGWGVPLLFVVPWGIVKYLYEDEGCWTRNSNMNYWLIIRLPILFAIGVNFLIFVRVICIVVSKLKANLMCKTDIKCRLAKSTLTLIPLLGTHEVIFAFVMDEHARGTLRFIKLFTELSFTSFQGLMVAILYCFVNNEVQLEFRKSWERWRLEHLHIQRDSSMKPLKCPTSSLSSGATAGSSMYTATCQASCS
# Assay: qHTS of GLP-1 Receptor Agonists: Hit Validation; on activation: % of control where 0% means no effect
# Settings: HEK293 GLP-1R, cAMP-response luciferase, 4-6 h; series mostly up to 46.1 µM; activation: at the top concentration
# Text: The overall goal of this project was to develop a novel assay for discovering small molecule ligands for class B1 G protein-coupled receptors (GPCRs). Very few agonists (or inverse agonists) with generally weak activity for this entire group of physiologically important receptors are known to date. To establish proof-of-principle that this critical bottleneck can be overcome with a suitable screening approach, our studies focused on the class B1 receptor for glucagon-like peptide-1 (GLP-1R), a potential therapeutic target for diabetes and neurodegenerative disease. The assay was developed in a "mix and measure" format using a cell-based functional readout. Toward this goal, stably transfected HEK293 cell clones were established that co-express (i) a cAMP-responsive luciferase reporter gene, and (ii) GLP-1Rs that upon ligand interaction either stimulate (agonists) or inhibit (inverse agonists) luciferase activity. In different cell lines to be used for screening, expressed GLP-1Rs are specifically optimized for high sensitivity detection of either weak agonists (hypersensitive receptor) or inverse agonists (constitutively active receptor mutant). In addition, control cell lines were developed that express either the cAMP-responsive reporter gene without recombinant GLP-1Rs (enabling initial exclusion of GLP-1R independent effects of candidate probes), or the reporter gene together with wild type GLP-1Rs (for confirmation of probe activity at this receptor), or the reporter gene in combination with the constitutively active orphan receptor GPR119 (enabling initial exclusion of GLP-1R independent inhibitory effects of candidate inverse agonists). To that end, this assay was optimized for 1536-well format and screened against the MLSMR. NIH Molecular Libraries Probe Production Network [MLPCN] NIH Chemical Genomics Center [NCGC] Grant: NS064851 PI Name: Martin Beinborn, Tufts Medical Center
# In a white solid 1536-well plate, 6 uL of cells are dispensed in DMEM without phenol red, 10% Nu serum, and 1% pen-strep medium. The plates are then incubated for 12 hours at 37 deg C at 5% CO2 before 23 nL of compounds are added. After a 4-6 hr incubation at37 deg C and 5% CO2, 3 uL of detection reagent are added and after a 12 min incubation at RT, a luminescent read is obtained on the ViewLux.
# Potency means the concentration at half of the fitted maximal effect.
Structure (SMILES),activation,Potency
CN(C)CCO,inactive: -0.671%,
O=c1[nH]cnc2nc(-c3ccc(N(CCCl)CCCl)cc3)[nH]c12,inactive: 17.1%,
COc1ccc(-n2c(-c3ccc(C)cc3)nc3ccccc3c2=O)cc1,inactive: 5.56%,
c1ccc2nc(N3CCNCC3)ccc2c1,inactive: 2.45%,
CCC1C(C)=NN=C(c2ccc(OC)c(OC)c2)c2cc(OC)c(OC)cc21 (configuration not stated),inactive: 28.4%,
C[C@]12CCC(=O)C[C@@H]1CC[C@@H]1[C@@H]2CC[C@]2(C)[C@@H](O)CC[C@@H]12,inactive: 1.4%,
O=C(CCCOc1ccc(Cl)cc1Cl)N1CCC2(CC1)OCCO2,inactive: 3.79%,
CCNc1nc(NC(C)(C)C)nc(SC)n1,inactive: 2.02%,
C=CCn1c(O)c(C(CC)=NCCc2c[nH]c3ccccc23)c(=O)[nH]c1=O,inactive: 10.3%,
CN(C)C(=O)Oc1cc(OC(=O)N(C)C)cc(C(O)CNC(C)(C)C)c1 (configuration not stated),inactive: -0.316% [at 19.8 µM],
COc1ccc(C2=NCc3nnc(C)n3-c3ccc(Cl)cc32)cc1Cl,inactive: 22.8%,
O=[N+]([O-])c1c2ccccc2cc2ccccc12,inactive: 1.49%,
C[C@H]1CCC[C@H](O)CCCCCc2cc(O)cc(O)c2C(=O)O1,inactive: 0.305%,
Cc1nn(-c2ccccc2)c2c1C(c1ccc3c(c1)OCO3)SCC(=O)N2 (configuration not stated),inactive: -0.435%,
COc1ccc(C=O)cc1,inactive: -1.31%,
COc1ccc(Cc2nccc3cc(OC)c(OC)cc23)cc1OC,inactive: 28.3%,
CN1CCN=C(c2ccccc2)c2cc(Cl)ccc21,inactive: -0.229%,
N#Cc1c(/N=C/c2ccc(O)cc2O)sc2c1C1CCN2CC1,inactive: 12.4%,
C[C@@H]1CN([C@H](C)CO)C(=O)CCCn2cc(nn2)CO[C@H]1CN(C)C(=O)Oc1ccc2ccccc2c1,inactive: -0.911%,
COc1cccc([C@@]2(O)CCCC[C@@H]2CN(C)C)c1,inactive: -1.26% [at 92.2 µM],
CC(Cc1ccc(O)cc1)NCC(O)c1ccc(O)c(O)c1 (configuration not stated),,active: 9.2 nM
Cc1ccc(CN2CCSc3ccc(C(=O)N4CCC5(CC4)OCCO5)cc32)cc1,inactive: -0.309%,
CC(NCc1ccc(Cl)cc1)C(O)c1ccccc1 (configuration not stated),inactive: 20.3%,
CCC(=NC(C)c1ccccc1)c1c(O)[nH]c(=O)[nH]c1=O (configuration not stated),inactive: 15%,
NP(=O)(Nc1ccccc1)Nc1ccccc1,inactive: 14.8%,
CN1C(=O)CN=C(c2ccccc2)c2cc(Cl)ccc21,inactive: 1.37%,
N#Cc1ccccc1Cn1cc(C(=O)c2ccco2)c2ccccc21,inactive: 5.2%,
